# In PubChem BioAssay AID686978 (National Center for Advancing Translational Sciences (NCATS), 2013):
# Values joined by “and” are separate entries in the source; they are usually repeats but may differ in a detail not shown here. Identical values can stand only once. Among all 420,000 compounds or so, about 64,000 (15%) were called active. This list was built around the results that the source calls inconclusive (neither active nor inactive); the mix of calls is not that of the screen. Calls follow the shape of the dose curve; as a rule, active = well fitted inhibition curve with a large enough effect; inconclusive = small, poorly fitted or top-dose-only effect; inactive = flat fitted curve, though single readings scatter. Potencies of inconclusive entries are left out as doubtful fits.
# Assay: qHTS for Inhibitors of human tyrosyl-DNA phosphodiesterase 1 (TDP1): qHTS in cells in absence of CPT; also: nearly all actives have a fitted effect of over 55% in size
# Conditions: DT40 Tdp1-/- hTDP1 cells, no CPT, ATP luminescence, 48 h; activity change, negative = growth inhibition: at 46.2 µM (top of the series) unless noted
# Summary of the method: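 Stably hTDP1-transfected Tdp1-null chicken DT40 cells were treated with library compounds minus camptothecin and grown for at least 48 hr at 37 °C, after which cellular ATP was quantified by luminescence.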
# % is scaled to controls: 0 for no effect and ±100 for the full control effect; potency is read from the fitted curve at half-maximal effect; tags tell the direction and shape of the fitted curve.
SMILES,Potency,"activity change, negative = growth inhibition"
Cc1ccc(CSc2nnc(CNc3ccc(F)cc3)o2)cc1,inactive,
Oc1cccc(/C=N/N2CCN(C3c4ccccc4-c4ccccc43)CC2)c1,"inconclusive [inhibitor, single point]",
CC(=O)Nc1ccc(S(=O)(=O)NCCSCc2ccccc2Cl)cc1,active: 18.4 µM,
Cc1ccsc1CN(C)CC(=O)Nc1ccccc1C(=O)NC1CC1,inactive,
O=C(c1ccccc1F)N1CCN(c2ccc([N+](=O)[O-])c3cccnc23)CC1,"inconclusive [inhibitor, partial curve]",
COc1ccc(C2=NOC3(CC(=O)N(c4ccc(C)cc4)C3=O)C2)cc1 (stereo unspecified),inactive,
O=C(Cc1coc2cc(O)ccc12)NNC(=O)c1cccs1,inactive,
CC(C)NC(=O)C1C(c2ccc(C(F)(F)F)cc2)=Nc2ccccc2N1C(=O)c1ccccc1 (stereo unspecified),"inconclusive [inhibitor, single point]",
COC(=O)C1(S(=O)(=O)C2(C(=O)OC)CCCC2)CCCC1,inactive,
COc1ccc(C2(C(=O)NCCN3CCOCC3)CCOCC2)cc1,inactive,
O=C(NNc1c(Cl)cncc1Cl)c1sccc1Cl,,inconclusive: -31.6% [inhibitor]
COc1cccc(OC)c1C(=O)Nc1nc(-c2ccccc2)cs1,inactive,
Cc1coc2c1c(C)cc1oc(=O)c(CC(=O)NCc3ccc(Cl)cc3)c(C)c12,"inconclusive [inhibitor, partial curve]",
Cc1ccc2nc(-c3c[nH]c4ccccc34)c(Nc3ccccc3)n2c1,"inconclusive [inhibitor, single point]",
O=C(NCCc1ccc(F)cc1)C(=O)NCC(c1ccc2c(c1)OCO2)N1CCOCC1 (stereo unspecified),inactive,
C=C[C@@H]1c2ccccc2N(S(=O)(=O)c2ccc(C)cc2)[C@H](c2ccccc2)C1(C#N)C#N,active: 5.62 µM and active: 20.6 µM,
Cc1cc(C)c(C(=O)NCC(=O)c2ccccc2)c(C)c1,"inconclusive [inhibitor, partial curve, poor fit]",
CCOc1ccccc1NC(=O)C1CC(=O)n2ncnc2N1 (stereo unspecified),inactive,
COc1ccc(CN(C(=O)COc2ccc(C)c(C)c2)C2CCS(=O)(=O)C2)cc1OC (stereo unspecified),"inconclusive [inhibitor, single point]",
COc1cc(/C=N/Nc2nc3ccccc3s2)ccc1O,active: 1.3 µM,
O=C(CCNC(=O)c1ccccc1Cl)NCC(c1ccco1)N1CCCC1 (stereo unspecified),inactive,
O=C1NC[C@H](Cc2ccc(O)cc2)N(C[C@@H]2CCCN2C[C@H](Cc2ccccc2)N2C[C@H](Cc3ccc(O)cc3)N(CC3CCCCC3)C(=O)C2=O)C1=O,"inconclusive [inhibitor, single point]",
Cc1ccc(S(=O)(=O)N(CC(=O)NC2CC3CCC2C3)c2ccccc2)cc1 (stereo unspecified),"inconclusive [inhibitor, single point]",
C[C@@H]1CN([C@@H](C)CO)C(=O)c2cc(C#CC3CCCCC3)cnc2O[C@@H]1CN(C)S(=O)(=O)c1ccc(F)cc1,active: 14.6 µM,
COc1ccccc1N(C)S(=O)(=O)c1ccc(Cl)c(C(=O)NNC(=O)c2ccccc2O)c1,"inconclusive [inhibitor, partial curve]",
COc1ccc(NS(=O)(=O)c2ccc3ccccc3c2)c2ncccc12,active: 6.51 µM,

SMILES,Potency,"activity change, negative = growth inhibition"
Cc1cccc(NC(=O)c2ccc(F)c(S(=O)(=O)N(C)C3CCCCC3)c2)c1,"inconclusive [inhibitor, single point]",
Clc1ccc2c(c1)C(C1=NCCN1)c1ccccc1CS2 (stereo unspecified),active: 5.8 µM,
Clc1ccccc1CN(Cc1ccco1)Cc1nnnn1C1CCCC1,"inconclusive [inhibitor, single point]",
Cc1nn(C)c(C(=O)NC(=S)Nc2ccc([N+](=O)[O-])cc2)c1Cl,"inconclusive [inhibitor, single point]",
O=C(O)CSc1nc(-c2ccccc2)nc2c1CCCC2,inactive,
Cc1cccc(C)c1Cn1c(C)c(C(=O)NCc2ccccc2C(F)(F)F)sc1=O,"inconclusive [inhibitor, single point]",
Brc1ccc2nc(-c3ccccc3)c(Cc3ccccc3)n2c1,"inconclusive [inhibitor, single point]",
COc1ccc(C(=O)Nn2c(C3CCC3)nc3ccccc3c2=O)c(OC)c1,"inconclusive [inhibitor, single point]",
Cc1nn(C(C)C(=O)NNC(=S)Nc2ccc(Cl)cc2)c(C)c1[N+](=O)[O-] (stereo unspecified),inactive,
CCCCC(CC)CNC(=O)c1cc2ccccc2c(=O)o1 (stereo unspecified),"inconclusive [inhibitor, single point]",
O=C(NCc1ccc2c(c1)OCO2)C1CCN(S(=O)(=O)c2ccc(Br)s2)CC1,active: 20.6 µM,
O=C(COc1ccc(Br)cc1)N1CCOCC1,inactive,
CC1(C(=O)NS(=O)(=O)c2ccc(F)cc2F)CCN1C(=O)Cc1ccc(Cl)cc1Cl (stereo unspecified),inactive,
COc1cc(-c2nnc3sc(-c4cccs4)nn23)cc(OC)c1OC,active: 11.6 µM,
CCOCCCNC(=O)C(c1ccc(Cl)cc1)N(Cc1ccc2c(c1)OCO2)C(=O)c1ccccc1O (stereo unspecified),"inconclusive [inhibitor, single point]",
COc1ccc(NC(=O)C(C)n2nc(C)c3c(C)n(-c4ccccc4)nc3c2=O)cc1Cl (stereo unspecified),"inconclusive [inhibitor, single point]",
CC(=O)Nc1ccc(Nc2nc3ccc(C)cc3n3nnnc23)cc1,active: 6.51 µM,
COc1ccc(C2C(C(=O)N3CCC(C(N)=O)CC3)CC(=O)N2c2ccc(OC)cc2)cc1 (stereo unspecified),inactive,
CC(OC(=O)Cc1coc2ccc3ccccc3c12)C(=O)Nc1ncc(Cl)cc1Cl (stereo unspecified),,inconclusive: -34% [inhibitor]
C=CCn1c(SCC(=O)N2CCN(C(=O)OCC)CC2)nc2c([nH]c3ccccc32)c1=O,active: 16.4 µM,
CCCCC(=O)OCc1nc2ccccc2s1,inactive,
CCCC(CCC)C(N)=O,inactive,
Cc1c(C)c2ccc(OCC(=O)NCCN3CCOCC3)cc2oc1=O,inactive,
Cc1c(Cl)cccc1NC(=O)Cc1ccc([N+](=O)[O-])cc1,,inconclusive: -36.2% [inhibitor]
c1ccc(Nc2ccccc2)cc1,inactive,
CCN(Cc1nc(-c2ccc(OC)cc2)oc1C)S(=O)(=O)c1ccc(Cl)cc1,"inconclusive [inhibitor, single point]",

SMILES,Potency,"activity change, negative = growth inhibition"
COc1ccc(-c2nc(S(=O)(=O)c3ccccc3)c(N3CCCCC3)o2)cc1,active: 18.4 µM,
Cc1ccc2nc(CSc3nnc(-c4ccco4)o3)cc(=O)n2c1,inactive,
CCOC(=O)c1c(C)[nH]c(C)c1S(=O)(=O)N(C)CC(=O)Nc1cccc(C)n1,inactive,
Cc1ccc(/C=C/C2=NN(Cc3ccc(Cl)c(Cl)c3)C(=O)CC2)cc1,inactive,
Cc1cccc(-n2ncc3c(N4CCCc5ccccc54)ncnc32)c1,"inconclusive [inhibitor, single point]",
CCCCN1CC(COCc2ccccc2)Oc2cccc(Oc3ccc(F)cc3)c2S1(=O)=O (stereo unspecified),"inconclusive [inhibitor, single point]",
CNc1nc(-c2cccs2)cc(C(F)(F)F)c1C#N,inactive,
Cc1nc2ccccc2c(=O)n1/N=C/c1ccc(C(C)C)cc1,"inconclusive [inhibitor, single point]",
CC(C)CCn1nnnc1C(c1ccc(F)cc1)N1CCN(C(=O)c2ccco2)CC1 (stereo unspecified),"inconclusive [inhibitor, single point]",
CCOc1cccc(CNCCO)c1OCc1ccc(Cl)cc1Cl,active: 16.4 µM,
C=CCn1cc(C(=O)NCc2ccco2)c(=O)c2cc(S(=O)(=O)N3CCCCCC3)ccc21,"inconclusive [inhibitor, partial curve, poor fit]",
CCOC(=O)CCCn1ncn2c(cc3occc32)c1=O,"inconclusive [inhibitor, full curve, poor fit]",
CCOc1ccc(CCNC(=O)CS(=O)Cc2nc(-c3ccccc3C)oc2C)cc1OCC (stereo unspecified),"inconclusive [inhibitor, single point]",
COCc1ccccc1Cn1cnc2c1c(=O)n(C)c(=O)n2C,"inconclusive [inhibitor, partial curve]",
CCC(C)NCCCOc1ccc(Cl)cc1C(C)(C)C (stereo unspecified),,inconclusive: -36.9% [inhibitor]
COc1ccccc1NS(=O)(=O)c1ccc(C)c(NC(=O)NCCCl)c1,"inconclusive [inhibitor, single point]",
Cc1ccc2c(C(=O)CNc3nccs3)c[nH]c2c1,"inconclusive [inhibitor, single point]",
CC(=O)c1sc(Nc2ccc(Oc3ccccc3)cc2)nc1C,active: 20.6 µM,
Cc1noc(C)c1-c1cncnc1NCc1ccccc1,"inconclusive [inhibitor, single point]",
COc1ccc(Cn2nnnc2C(c2cccs2)N2CCSCC2)cc1 (stereo unspecified),"inconclusive [inhibitor, partial curve]",
Cc1ccc(C(=O)NC(C)C(c2cccs2)N2CCOCC2)cc1C (stereo unspecified),active: 18.4 µM,
O=c1c2c3c(sc2nc(NCCO)n1CCc1ccccc1)CCCCC3,active: 4.11 µM,
COc1ccc(NC(=O)N(C)C[C@H]2Oc3ncc(Br)cc3C(=O)N([C@H](C)CO)C[C@@H]2C)cc1,inactive,
CCOC(=O)c1ccc(COc2ccc(C(C)C)cc2)o1,inactive,
